# Hit rate of the full screen: of about 52,000 compounds, about 1,700 (3.3%) were called active. No stated cut-off is given here; in the data, active means survival mostly below about 52% (no sharp cut-off); inactive means mostly above about 56%. This is one part of the list.
# System: Wild type
# Assay: growth inhibition of S. aureus wild type versus tarO mutant, primary screen, teichoic acid synthesis inhibitors, RN4220, OD600 (AID 463173)
# Conditions: S. aureus RN4220 wild type/DeltatarO growth, OD600, 18 h, stronger effect = lower value, screened at 18.75 µg/mL (by protocol)
row,Structure (SMILES),survival
1,COc1ccc(S(=O)(=O)c2cn(C)c3cc(N4CCOCC4)c(F)cc3c2=O)cc1,inactive: 72%
2,COC(=O)CC1Oc2ccc(Cl)cc2-n2cc(-c3ccc(F)cc3)nc21 (centres undefined),inactive: 96%
3,O=C(COc1ccccc1)Nc1c(Cl)ccc2nsnc12,inactive: 70%
4,CC(=O)N1CCc2cc(S(=O)(=O)N3CCN(c4ccc(C)cc4)C(C)C3)ccc21 (centres undefined),inactive: 90%
5,CCc1ccc(OCC(=O)Nc2ccc(Cl)c(-c3nc4ncccc4o3)c2)cc1,inactive: 59%
6,CCc1ccc(OCC(=O)Nc2ccc3oc(-c4ccc(OC)cc4)nc3c2)cc1,inactive: 79%
7,Cc1ccc(C)c(N(C)S(=O)(=O)c2ccc3[nH]cc(C(=O)NC4CCCC4)c(=O)c3c2)c1,inactive: 68%
8,CCOc1ccc(S(=O)(=O)NCC(c2cccs2)S(=O)(=O)c2ccc(C)cc2)cc1 (centres undefined),inactive: 94%
9,O=C1OCc2cc(-n3[nH]nnc3=S)ccc21,inactive: 109%
10,CCN1CCN(C(=O)c2c(C)nn(-c3ccc(F)cc3)c2-n2cccc2)CC1,inactive: 85%
11,CC(C)(C)NC(=O)CCSc1nc(-c2ccc3c(c2)OCO3)cc(C(F)(F)F)n1,active: 4%
12,CCC(C(=O)NCCc1cc(OC)ccc1OC)n1nc(C)c2sc3ccccc3c2c1=O (centres undefined),inactive: 80%
13,Cc1cc(-c2nc3ncccc3o2)ccc1NC(=O)COc1cc(C)c(Cl)c(C)c1,inactive: 80%
14,CN(Cc1ccccc1)c1ccc(-c2nc(-c3cccnc3)no2)cc1[N+](=O)[O-],inactive: 84%
15,CCN(Cc1ccccc1)S(=O)(=O)c1ccc2[nH]c3c(c2c1)CCCCC3,inactive: 70%
16,Cc1c(C(=O)OCCOc2ccccc2)[nH]c2c1C(=O)CC(c1ccccc1Cl)C2 (centres undefined),inactive: 83%
17,CCOC(=O)c1cccc(NC(=O)c2nn(-c3ccc(OC)cc3)c(=O)c3c2c2ccccc2n3C)c1,inactive: 78%
18,CCOC(=O)c1cnc2nc(NCc3ccc(OCC)cc3)[nH]n2c1=O,inactive: 92%
19,Cc1ccc(C)c(NC(=O)CSc2nc(-c3ccccc3Cl)nc3c2Cc2c(CO)cnc(C)c2O3)c1,inactive: 109%
20,CCCCOc1ccc(C(=O)NCCc2csc(-c3ccc(OC)cc3)n2)cc1,inactive: 120%
21,CN(C)c1ccc(CNC(=O)c2cccn2-c2nnc(N3CCCCC3)s2)cc1,inactive: 65%
22,O=C(NCc1ccc(F)cc1)C(=O)NCC(c1cccs1)S(=O)(=O)c1cccs1 (centres undefined),inactive: 71%
23,CC(C)N(C(=O)Cn1nnc2ccccc21)C(C(=O)NCc1ccco1)c1ccccc1 (centres undefined),inactive: 101%

row,Structure (SMILES),survival
1,COc1ccccc1CNC(=O)c1ccc2c(c1)N(Cc1ccc(C)cc1)CCS2,inactive: 84%
2,COc1ccc(CSCCN)cc1Cl,inactive: 110%
3,O=S1(=O)CCC(NS(=O)(=O)c2ccccc2)C1 (centres undefined),inactive: 106%
4,CCN(CC)S(=O)(=O)c1ccc2c(c1)N(CC(=O)NCC(C)c1ccccc1)C(=O)CO2 (centres undefined),inactive: 91%
5,CCc1ccccc1NC(=O)CN1C(=O)COc2ccc(S(=O)(=O)N3CCCCCC3)cc21,inactive: 101%
6,Cc1ccc(-n2ncc3c(N4CCCCCC4)ncnc32)cc1C,inactive: 68%
7,CCn1cc(C(=O)N2CCN(c3ccccc3OC)CC2)c(=O)c2cc(S(=O)(=O)N3CCC(C)CC3)ccc21,inactive: 86%
8,CC(C)Oc1ccc(CNC(=O)c2ccccc2NC(=O)c2nsc3ccccc23)cc1,inactive: 124%
9,CNS(=O)(=O)c1cn(CC(=O)N2CCN(c3cccc(Cl)c3)CC2)cc1S(=O)(=O)NC,inactive: 73%
10,O=C(CCCCn1c(=O)c2ccccc2n(Cc2ccccc2F)c1=O)NCc1ccccc1Cl,inactive: 101%
11,CCN(CC)C(=O)C1=CC(c2ccc3c(c2)OCO3)=NS(=O)(=O)N1C,inactive: 85%
12,Cc1ccc(NC(=O)CSc2nc3ccc(NC(=O)CCc4ccccc4)cc3s2)c(C)c1,inactive: 85%
13,c1ccc(Oc2ccc(N=NN3CCCCC3)cc2)cc1,inactive: 97%
14,CCC(Oc1ccccc1)C(=O)Nc1ccc(OCc2cc(=O)n3ccc(C)cc3n2)cc1 (centres undefined),inactive: 63%
15,Cc1oc(-c2ccccc2F)nc1CSCC(=O)NCCc1ccccc1,inactive: 89%
16,COC(=O)c1ccc(CN(Cc2ccc(OC)c(OC)c2)S(=O)(=O)c2cc(C(=O)Nc3cccc(C)c3)ccc2F)cc1,inactive: 75%
17,O=S(=O)(NCCc1nnc2ccc(SCc3c(F)cccc3Cl)nn12)c1ccccc1,inactive: 78%
18,COc1ccc(N2C(=O)CS(=O)(=O)C23C(=O)N(Cc2c(F)cccc2Cl)c2ccccc23)cc1 (centres undefined),inactive: 88%
19,CCC(=O)N(C)c1nnc(-c2cccc(C)c2)s1,inactive: 122%
20,CC(C)CCNC(=O)c1cc(Sc2ccc(F)cc2F)nc2ccccc12,inactive: 75%
21,CCCCn1cc(S(=O)(=O)c2ccccc2)c(=O)c2cc(F)c(N3CCC(C)CC3)cc21,inactive: 86%
22,CCOC(=O)c1cnc2c(C)cc(C)cc2c1Nc1ccc(OCc2ccccc2)cc1,active: 11%
23,COc1ccc(NC(=O)C2=C(C)Nc3ncnn3C2c2ccccn2)cc1 (centres undefined),inactive: 55%

row,Structure (SMILES),survival
1,CCOC(=O)C1=C(C(F)(F)F)Nc2ncnn2C1c1cccc(OC)c1OC (centres undefined),inactive: 99%
2,NC(=O)CSc1n[nH]c(-c2ccco2)n1,inactive: 103%
3,O=C(CN1CCN(CC(=O)Nc2ccccc2F)CC1)Nc1ccc(Cl)c(C(F)(F)F)c1,inactive: 89%
4,COc1cccc(C(=O)Nc2ccc3c(c2)COC3=O)c1,inactive: 102%
5,CCOc1ccc(CNC(=O)CCc2cn(CC)c3ccccc23)cc1,inactive: 85%
6,CC1=C(c2ccc(C)c(C)c2)S(=O)(=O)N=C1N1CCC(C(=O)N2CCCCC2)CC1,inactive: 129%
7,COc1cc(C(=O)Nc2ccc(OCc3cc(=O)n4cccc(C)c4n3)cc2)cc(OC)c1OC,inactive: 133%
8,O=C(NCCc1ccccc1)c1ccc(CSc2nc3ccncc3n2Cc2cccc(F)c2)cc1,inactive: 133%
9,CCNc1nc(N2CCCC2)nc(N2CCCC2)n1,inactive: 111%
10,CCc1ccc(NC(=O)C2CCN(S(=O)(=O)c3c(C)noc3/C=C\c3ccc(OC)cc3)CC2)cc1,inactive: 84%
11,CCN(CC)C(=O)c1sc2c(c1C)c(=O)n(CCc1ccccc1)c(=O)n2Cc1cccc(Cl)c1,inactive: 74%
12,CCCCOc1ccc(CN2C(=O)C(=O)c3cc(C)ccc32)cc1OC,inactive: 87%
13,COc1ccccc1CNc1ccc(-c2nc(-c3cccc(C)c3)no2)cc1[N+](=O)[O-],inactive: 100%
14,O=C(NC1CCCC1)C1CCCN1C(=O)Nc1ccccc1 (centres undefined),inactive: 105%
15,CN(C)c1ccc(CNC(=O)c2ccc3c(c2)N(C)C(=O)C2CCCCN32)cc1 (centres undefined),inactive: 121%
16,O=C(c1cnc(N2CCOCC2)c2ccccc12)N1CCN(c2ccccc2F)CC1,inactive: 74%
17,CCOc1ccccc1N1CC(c2nc3ccccc3n2CCCCOc2cc(C)ccc2C)CC1=O (centres undefined),inactive: 43%
18,COc1ccc(-n2nc(C(=O)NCc3ccc(F)cc3)c3c4ccccc4n(C)c3c2=O)cc1,inactive: 79%
19,COC(=O)c1c(NC(=O)COc2ccc(OC)cc2)sc2c1CCC(C)C2 (centres undefined),inactive: 86%
20,Cc1cc(C)cc(OCCSc2nc(-c3ccc(C(C)(C)C)cc3)nc3cc(=O)[nH]n23)c1,inactive: 77%
21,O=S(=O)(c1ccc(-n2cnnn2)cc1)N(Cc1ccccn1)C1CC1,inactive: 111%
22,CCCc1cc(=O)[nH]c2nnc(SCCC(C)C)n12,inactive: 73%
23,COc1cc(NC(=O)CSc2ccc(-c3sc(-c4ccccc4)nc3C)nn2)cc(OC)c1,inactive: 41%

row,Structure (SMILES),survival
1,COc1ccc(CN2CCN(S(=O)(=O)c3ccccc3)CC2)c(OC)c1,inactive: 80%
2,CC(C)Oc1ccc(CNC(=O)C2CCCN(S(=O)(=O)c3ccc4c(ccn4C)c3)C2)cc1 (centres undefined),inactive: 128%
3,CCCn1cc(S(=O)(=O)c2ccc(OC)cc2)c(=O)c2cc(F)c(N3CCCCCC3)cc21,inactive: 59%
4,CCn1cc(S(=O)(=O)c2ccc(C)cc2C)c(=O)c2cc(F)c(N3CCCC3)cc21,inactive: 82%
5,Cc1ccc(CSc2nnc3[nH]c(=O)cc(C)n23)cc1,inactive: 83%
6,CCC(=O)N1c2ccccc2CC1C(=O)NCCc1ccc(OC)cc1OC (centres undefined),inactive: 66%
7,CCCN1C(=O)C2(c3ccccc31)c1c(oc3cc(C)c(C)cc3c1=O)C(=O)N2CCCOC (centres undefined),inactive: 83%
8,Nc1nc2n(n1)C(c1cccs1)CC(c1ccc(Cl)cc1Cl)N2 (centres undefined),inactive: 106%
9,COc1ccc(CC(=O)NC2CCN(CC(=O)Nc3ccc4c(c3)CCC4)CC2)cc1OC,inactive: 116%
10,COc1cccc(CNC(=O)CCc2c(C)nn(-c3ccc(N4CCOCC4)nn3)c2C)c1,inactive: 143%
11,COc1ccc(S(=O)(=O)N(C)CC(=O)N2CCCC2)cc1,inactive: 101%
12,O=C(CC1C(=O)N(c2ccccc2)C(=O)N1CCc1cccs1)Nc1ccc(Cl)cc1 (centres undefined),inactive: 69%
13,Cc1c(C(=O)Nc2cccc(C(F)(F)F)c2)oc2ccc(S(=O)(=O)N(C)C3CCCCC3)cc12,inactive: 80%
14,Cc1nnc(SCC(=O)O)o1,inactive: 118%
15,CCNC(=O)c1ccc(-n2c(-c3ccccc3)cc3c2CCCCC3)cc1,inactive: 84%
16,COc1ccc(OC)c(NC(=O)[C@H](Cc2ccccc2)N2Cc3ccccc3C2=O)c1,inactive: 127%
17,CC(=O)Nc1nonc1-c1nnc(SCc2ccc(C)cc2)n1C,inactive: 83%
18,CCOC(=O)CNc1ncnc2c1nnn2C,inactive: 22%
19,CCCc1cc(=O)[nH]c2nnc(SCC(=O)Nc3cccc(C)c3)n12,inactive: 99%
20,Cc1cccn2c(=O)c(/C=C(\C#N)c3nc4ccccc4n3C)c(Oc3ccc(Cl)cc3)nc12,inactive: 56%
